In publication PMC4856097 one finds binding data, which are given here for nine molecules.

By UniProt entry, the sequences of proteins in these tests, tags left out.
UniProt P08964: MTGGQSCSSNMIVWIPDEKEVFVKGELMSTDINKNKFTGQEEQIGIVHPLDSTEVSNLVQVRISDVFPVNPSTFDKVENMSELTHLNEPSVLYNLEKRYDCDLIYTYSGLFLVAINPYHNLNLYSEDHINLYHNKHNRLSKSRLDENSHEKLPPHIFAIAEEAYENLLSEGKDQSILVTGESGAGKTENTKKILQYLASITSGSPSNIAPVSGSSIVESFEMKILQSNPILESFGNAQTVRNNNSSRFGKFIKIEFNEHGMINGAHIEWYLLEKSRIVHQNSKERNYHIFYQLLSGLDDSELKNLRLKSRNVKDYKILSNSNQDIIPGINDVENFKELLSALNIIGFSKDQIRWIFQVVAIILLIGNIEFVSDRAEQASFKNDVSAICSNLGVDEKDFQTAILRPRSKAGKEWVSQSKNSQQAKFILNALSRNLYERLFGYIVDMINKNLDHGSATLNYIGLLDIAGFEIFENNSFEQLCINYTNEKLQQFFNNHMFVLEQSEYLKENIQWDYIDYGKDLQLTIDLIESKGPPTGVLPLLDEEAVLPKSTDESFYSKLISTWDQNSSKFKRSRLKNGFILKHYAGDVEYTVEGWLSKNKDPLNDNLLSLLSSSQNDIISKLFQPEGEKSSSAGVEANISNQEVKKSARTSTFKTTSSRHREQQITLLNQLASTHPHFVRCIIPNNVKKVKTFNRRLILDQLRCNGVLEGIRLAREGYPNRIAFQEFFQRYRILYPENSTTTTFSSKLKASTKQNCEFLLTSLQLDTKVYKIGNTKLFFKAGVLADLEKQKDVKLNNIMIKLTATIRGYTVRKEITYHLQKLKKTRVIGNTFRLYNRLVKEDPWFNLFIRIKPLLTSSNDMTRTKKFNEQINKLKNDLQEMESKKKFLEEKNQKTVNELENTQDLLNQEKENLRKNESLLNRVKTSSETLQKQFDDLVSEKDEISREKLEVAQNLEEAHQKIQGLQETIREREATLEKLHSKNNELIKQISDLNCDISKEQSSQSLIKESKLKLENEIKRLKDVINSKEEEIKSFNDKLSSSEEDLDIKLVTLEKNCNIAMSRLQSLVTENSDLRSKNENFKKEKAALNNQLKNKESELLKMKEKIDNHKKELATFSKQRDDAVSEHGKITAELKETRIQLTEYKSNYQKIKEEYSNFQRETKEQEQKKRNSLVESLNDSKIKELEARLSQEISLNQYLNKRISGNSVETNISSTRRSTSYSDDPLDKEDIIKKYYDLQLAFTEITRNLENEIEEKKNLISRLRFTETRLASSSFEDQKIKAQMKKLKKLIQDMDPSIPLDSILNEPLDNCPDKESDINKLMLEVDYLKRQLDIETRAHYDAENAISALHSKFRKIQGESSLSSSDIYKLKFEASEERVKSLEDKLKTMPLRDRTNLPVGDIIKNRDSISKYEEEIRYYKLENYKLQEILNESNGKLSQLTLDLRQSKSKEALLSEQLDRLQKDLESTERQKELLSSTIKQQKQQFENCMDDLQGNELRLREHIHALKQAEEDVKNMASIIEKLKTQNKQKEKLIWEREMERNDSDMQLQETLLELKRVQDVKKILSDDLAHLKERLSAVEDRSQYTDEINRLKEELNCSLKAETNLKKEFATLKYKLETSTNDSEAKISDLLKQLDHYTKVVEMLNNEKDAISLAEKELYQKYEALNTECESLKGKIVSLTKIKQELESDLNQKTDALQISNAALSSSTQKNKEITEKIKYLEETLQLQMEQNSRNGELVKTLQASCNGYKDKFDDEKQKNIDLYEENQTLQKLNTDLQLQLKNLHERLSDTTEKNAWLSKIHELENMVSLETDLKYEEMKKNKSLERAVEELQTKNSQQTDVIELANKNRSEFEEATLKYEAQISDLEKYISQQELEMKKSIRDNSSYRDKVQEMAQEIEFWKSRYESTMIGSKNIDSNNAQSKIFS

In experiment [1] the target is Myo1-TAP (TAP epitope fused to the Myo1p C-terminus) (S. cerevisiae) (UniProt P08964). The experiment is described as follows: co-IP; Myo1-TAP captured from yeast lysate on calmodulin beads by its calmodulin-binding peptide (IPLB buffer with 1% Triton-X100, 2 hr at 4°, six washes); BG1805 prey detected by anti-HA western blot. In general terms: Immunoblotting shows a protein as a band on a membrane.

For experiment [2], the target named is Myo1p bait with iMYTH tag (Cub-LexA-VP16) integrated at the C-terminus (S. cerevisiae) (UniProt P08964). The experiment is described as follows: two-hybrid; iMYTH NubG/I self-activation test: Myo1p L40 L2 strain transformed with control prey plasmids, serial dilutions spotted on SD–W and SD–WH.
The target in experiment [3] is Myo1-TAP (TAP epitope fused to the Myo1p C-terminus) (S. cerevisiae) (UniProt P08964). The experiment is described as follows: co-IP; Myo1-TAP captured from yeast lysate on calmodulin beads by its calmodulin-binding peptide (IPLB buffer with 1% Triton-X100, 2 hr at 4°, six washes); BG1805 prey detected by anti-HA western blot. The source holds these as a separate data set.

Where two headings read alike, the source gives them in different places. Results are given in words; binding and its absence hold for the method and conditions named. For part of these data: Binding seen in cells or lysates may run through a third protein. Some results given as binding are weak or reduced against the parent protein; the word gives no strength. For part of these data: Tags and fused reporters may be left off the sequences shown.

Take “Act1p, ACT1 gene cloned in the prey plasmid BG1805 (His6-HA-3C-ZZ) (from UniProt P60010 1-375)”: the binding entry in experiment [1] is on record as “binds”.

B1: Ost1 fused to NubG (negative control prey) (protein, UniProt P41543 23-476)
chain: AQYEPPATWENVDYKRTIDVSNAYISETIEITIKNIASEPATEYFTAFESGIFSKVSFFSAYFTNEATFLNSQLLANSTTAPGDDGESEIRYGIIQFPNAISPQEEVSLVIKSFYNTVGIPYPEHVGMSEEQHLLWETNRLPLSAYDTKKASFTLIGSSSFEEYHPPNDESLLGKANGNSFEFGPWEDIPRFSSNETLAIVYSHNAPLNQVVNLRRDIWLSHWASTIQFEEYYELTNKAAKLSKGFSRLELMKQIQTQNMRQTHFVTVLDMLLPEGATDHYFTDLVGLVSTSHAERDHFFIRPRFPIFGGWNYNFTVGWTNKLSDFLHVSSGSDEKFVASIPILNGPPDTVYDNVELSVFLPEGAEIFDIDSPVPFTNVSIETQKSYFDLNKGHVKLTFSYRNLISQVANGQVLIKYDYPKSSFFKKPLSIACYIFTALMGVFVLKTLNMNVTN
With B1, in experiment [2], the binding result is “no binding”.

B2: Fur4 fused to NubG (negative control prey) (protein, UniProt P05316 1-633)
chain: MPDNLSLHLSGSSKRLNSRQLMESSNETFAPNNVDLEKEYKSSQSNITTEVYEASSFEEKVSSEKPQYSSFWKKIYYEYVVVDKSILGVSILDSFMYNQDLKPVEKERRVWSWYNYCYFWLAECFNINTWQIAATGLQLGLNWWQCWITIWIGYGFVGAFVVLASRVGSAYHLSFPISSRASFGIFFSLWPVINRVVMAIVWYSVQAYIAATPVSLMLKSIFGKDLQDKIPDHFGSPNATTYEFMCFFIFWAASLPFLLVPPHKIRHLFTVKAVLVPFASFGFLIWAIRRAHGRIALGSLTDVQPHGSAFSWAFLRSLMGCMANFSTMVINAPDFSRFSKNPNSALWSQLVCIPFLFSITCLIGILVTAAGYEIYGINYWSPLDVLEKFLQTTYNKGTRAGVFLISFVFAVAQLGTNISANSLSCGTDMSAIFPKFINIKRGSLFCAAMALCICPWNLMATSSKFTMALSAYAIFLSSIAGVVCSDYFVVRRGYIKLTHIYSHQKGSFYMYGNRFGINWRALAAYLCGVAPCLPGFIAEVGAPAIKVSDGAMKLYYLSYWVGYGLSFSSYTALCYFFPVPGCPVNNIIKDKGWFQRWANVDDFEEEWKDTIERDDLVDDNISVYEHEHEKTFI
Consider B2, for which the binding result in experiment [2] is on record as “no binding”.

B3: Trx2, full-length prey in expression vector BG1805 (His6-HA-3C-ZZ) (protein, UniProt P22803 1-104)
chain: MVTQLKSASEYDSALASGDKLVVVDFFATWCGPCKMIAPMIEKFAEQYSDAAFYKLDVDEVSDVAQKAEVSSMPTLIFYKGGKEVTRVVGANPAAIKQAIASNV
Consider B3, for which the binding result in experiment [3] is reported as “binds”.

B4: Bzz1, full-length prey in expression vector BG1805 (His6-HA-3C-ZZ) (protein, UniProt P38822 1-633)
chain: MSADLSIGNEIKDSFKETHKWVQNNLKWLKDIEQFYRERAKLEKDYSERLSRLSAEYFNKKSSTSVPISVGDTPTTTPGSIEAAGVVAWNEILSQTDMISKDHDQLSTDFENHVANQLSGLFTKLDMTLSKINGFNNDMVNKKDNIYHELEKAKKDYDEACSTMEMARNRYTKASNDRNKKKLDEKEMEMNKCKNEYLIKINQANRTKDKYYFQDVPEVLDLLQDVNEAKTLFLNDLWLKAASVENDLGANVSKRLQAANSVVKQNKPSLNTAIFIKHNLKNWKEPQDFVYKPSPVWHDDEKFAVPSSLEVEDLRIKLAKAENDYNSLQDKTQNELSKLSTLNKIKHEMKTNEDNINATKFYDTLKEYLNVVSPFTSHETLKLQAEVQIESIQNNVPEEYDLSTDNIDLSKTKKKSGIFSKFKHNILNVDSKPSSGGSTGNGNGGPLHITSLFNTSRRTRLGSAPNNAGEDSDNNSIRTTSTNNTKKTTQNSSDDGKNKVLYAYVQKDDDEITITPGDKISLVARDTGSGWTKINNDTTGETGLVPTTYIRISSAATVKANDRGPAPEVPPPRRSTLPVRTMEAIYAYEAQGDDEISIDPGDIITVIRGDDGSGWTYGECDGLKGLFPTSYCK
Regarding B4, the binding result in experiment [3] is “binds”.

B5: Fba1, full-length prey in expression vector BG1805 (His6-HA-3C-ZZ) (protein, UniProt P14540 1-359)
chain: MGVEQILKRKTGVIVGEDVHNLFTYAKEHKFAIPAINVTSSSTAVAALEAARDSKSPIILQTSNGGAAYFAGKGISNEGQNASIKGAIAAAHYIRSIAPAYGIPVVLHSDHCAKKLLPWFDGMLEADEAYFKEHGEPLFSSHMLDLSEETDEENISTCVKYFKRMAAMDQWLEMEIGITGGEEDGVNNENADKEDLYTKPEQVYNVYKALHPISPNFSIAAAFGNCHGLYAGDIALRPEILAEHQKYTREQVGCKEEKPLFLVFHGGSGSTVQEFHTGIDNGVVKVNLDTDCQYAYLTGIRDYVLNKKDYIMSPVGNPEGPEKPNKKFFDPRVWVREGEKTMGAKITKSLETFRTTNTL
On to B5, for which the binding result in experiment [3] was “binds”.

B6: Ape2, full-length prey in expression vector BG1805 (His6-HA-3C-ZZ) (protein, UniProt P32454 53-952)
chain: NVMWKQSKLTPPRFVKIMNRRPLFTETSHACAKCQKTSQLLNKTPNREILPDNVVPLHYDLTVEPDFKTFKFEGSVKIELKINNPAIDTVTLNTVDTDIHSAKIGDVTSSEIISEEEQQVTTFAFPKGTMSSFKGNAFLDIKFTGILNDNMAGFYRAKYEDKLTGETKYMATTQMEPTDARRAFPCFDEPNLKASFAITLVSDPSLTHLSNMDVKNEYVKDGKKVTLFNTTPKMSTYLVAFIVAELKYVESKNFRIPVRVYATPGNEKHGQFAADLTAKTLAFFEKTFGIQYPLPKMDNVAVHEFSAGAMENWGLVTYRVVDLLLDKDNSTLDRIQRVAEVVQHELAHQWFGNLVTMDWWEGLWLNEGFATWMSWYSCNEFQPEWKVWEQYVTDTLQHALSLDSLRSSHPIEVPVKKADEINQIFDAISYSKGASLLRMISKWLGEETFIKGVSQYLNKFKYGNAKTEDLWDALADASGKDVRSVMNIWTKKVGFPVISVSEDGNGKITFRQNRYLSTADVKPDEDKTIYPVFLALKTKNGVDSSVVLSERSKTIELEDPTFFKVNSEQSGIYITSYTDERWAKLGQQADLLSVEDRVGLVADVKTLSASGYTSTTNFLNLVSKWNNEKSFVVWDQIINSISSMKSTWLFEPKETQDALDNFTKQLISGMTHHLGWEFKSSDSFSTQRLKVTMFGAACAARDADVEKAALKMFTDYCSGNKEAIPALIKPIVFNTVARVGGAENYEKVYKIYLDPISNDEKLAALRSLGRFKEPKLLERTLGYLFDGTVLNQDIYIPMQGMRAHQEGVEALWNWVKKNWDELVKRLPPGLSMLGSVVTLGTSGFTSMQKIDEIKKFFATKSTKGFDQSLAQSLDTITSKAQWVNRDRDVVNKYLKENGYY
B6: the binding entry in experiment [3] is “binds”.

B7: Rpl5, full-length prey in expression vector BG1805 (His6-HA-3C-ZZ) (protein, UniProt P26321 1-297)
chain: MAFQKDAKSSAYSSRFQTPFRRRREGKTDYYQRKRLVTQHKAKYNTPKYRLVVRFTNKDIICQIISSTITGDVVLAAAYSHELPRYGITHGLTNWAAAYATGLLIARRTLQKLGLDETYKGVEEVEGEYELTEAVEDGPRPFKVFLDIGLQRTTTGARVFGALKGASDGGLYVPHSENRFPGWDFETEEIDPELLRSYIFGGHVSQYMEELADDDEERFSELFKGYLADDIDADSLEDIYTSAHEAIRADPAFKPTEKKFTKEQYAAESKKYRQTKLSKEERAARVAAKIAALAGQQ
On to B7, for which, in experiment [3], the binding entry was “binds”.

B8: Tah11, full-length prey in expression vector BG1805 (His6-HA-3C-ZZ) (protein, UniProt P47112 1-604)
chain: MSGTANSRRKEVLRVPVIDLNRVSDEEQLLPVVRAILLQHDTFLLKNYANKAVLDALLAGLTTKDLPDTSQGFDANFTGTLPLEDDVWLEQYIFDTDPQLRFDRKCRNESLCSIYSRLFKLGLFFAQLCVKSVVSSAELQDCISTSHYATKLTRYFNDNGSTHDGADAGATVLPTGDDFQYLFERDYVTFLPTGVLTIFPCAKAIRYKPSTMATTDNSWVSIDEPDCLLFHTGTLLARWSQGMHTTSPLQIDPRANIVSLTIWPPLTTPISSKGEGTIANHLLEQQIKAFPKVAQQYYPRELSILRLQDAMKFVKELFTVCETVLSLNALSRSTGVPPELHVLLPQISSMMKRKIVQDDILKLLTIWSDAYVVELNSRGELTMNLPKRDNLTTLTNKSRTLAFVERAESWYQQVIASKDEIMTDVPAFKINKRRSSSNSKTVLSSKVQTKSSNANALNNSRYLANSKENFMYKEKMPDSQANLMDRLRERERRSAALLSQRQKRYQQFLAMKMTQVFDILFSLTRGQPYTETYLSSLIVDSLQDSNNPIGTKEASEILAGLQGILPMDISVHQVDGGLKVYRWNSLDKNRFSKLLQIHKSKQQD
With B8, the binding entry in experiment [3] was “binds”.
